In all, about 45,000 compounds went through this assay and about 65 (0.1%) were called active. Calls come from the whole dose curve; as a rule, active = well fitted activation curve with a large enough effect; inconclusive = small, poorly fitted or top-dose-only effect; inactive = no such curve, though single readings can be large or run the other way. This is one part of the list.

The target of this assay is Galactocerebrosidase (Homo sapiens) (UniProt P54803). In words: A Novel Cell-Based Assay to Identify Small Molecules for B -Galactocerebrosidase. Note: 0% is about no effect; nearly all actives have a fitted effect of over 65% in size. Conditions: 145M-Twi-hGALC-G270D cells, HMU-beta-Gal fluorescence, 48 h; series mostly up to 57.5 µM; activation: at the top concentration. Summed up: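 qHTS, 1536-well; 145M-Twi-hGALC-G270D cells (WT line also made) in DMEM/F12 + 10% FBS; compound incubation on live cells; HMU-β-gal 0.1 mM final, pH 5.2, NaTC; carbonate stop; fluorescence increase = enhanced residual activity.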
Sequence of UniProt P54803 (P54803 whole entry, looked up): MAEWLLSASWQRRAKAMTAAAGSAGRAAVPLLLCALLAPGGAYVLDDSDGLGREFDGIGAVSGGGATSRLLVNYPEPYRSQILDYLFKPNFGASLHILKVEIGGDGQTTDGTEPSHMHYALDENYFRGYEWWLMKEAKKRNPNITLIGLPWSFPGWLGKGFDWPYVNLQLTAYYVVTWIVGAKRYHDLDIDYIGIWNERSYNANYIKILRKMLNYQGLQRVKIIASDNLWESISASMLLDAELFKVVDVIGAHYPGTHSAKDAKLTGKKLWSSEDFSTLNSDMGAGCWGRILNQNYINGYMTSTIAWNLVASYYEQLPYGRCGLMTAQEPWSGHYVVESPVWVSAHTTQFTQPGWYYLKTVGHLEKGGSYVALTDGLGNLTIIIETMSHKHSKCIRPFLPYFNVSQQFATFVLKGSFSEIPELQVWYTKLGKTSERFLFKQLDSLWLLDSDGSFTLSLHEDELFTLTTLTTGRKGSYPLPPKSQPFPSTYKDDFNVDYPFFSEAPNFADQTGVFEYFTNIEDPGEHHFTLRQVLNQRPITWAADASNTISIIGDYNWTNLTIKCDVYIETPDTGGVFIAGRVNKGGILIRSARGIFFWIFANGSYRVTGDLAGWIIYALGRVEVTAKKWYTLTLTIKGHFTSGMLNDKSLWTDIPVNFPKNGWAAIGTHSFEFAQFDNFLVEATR
As for `Cc1ccc(Nc2ncnc3onc(C)c23)cc1Cl`, the “activation” value was inactive: -9.66%. Turning to `COC(=O)c1ccccc1NC(=O)C1(c2cccs2)CCOCC1`, the “activation” value is inactive: 5.03%. In the case of `CCCCOC(=O)c1ccc(NC(=O)Cc2coc3c(C)c(C)ccc23)cc1` it was inactive: -10.6%; in that of `CCC1(c2cnc[nH]2)Cc2ccccc2C1`, inactive: -15%. For `CCNC(=O)C1CCCN(c2nnc(C)c3c(C)n(-c4ccc(C)cc4)nc23)C1` (stereo unspecified) the value was inactive: -13.1%; for `Cc1ccc(OCC(=O)N(Cc2ccco2)c2ccccn2)cc1`, inactive: -14.6%.

As for `CCOC(=O)c1c(C)[nH]c(C)c1S(=O)(=O)N1CCCC(C(=O)Nc2ccc(C)c(N(C)C)c2)C1` (stereo unspecified), the “activation” value was inactive: -1.33%. In the case of `CCOC(=O)c1[nH]c(C)c(CCC(=O)NCc2cccc(C)c2)c1C`, the “activation” value is inactive: -14.1%. In the case of `Cc1cc(C)cc(NC(=O)c2ccc3c(O)c(S(=O)(=O)c4ccccc4)c(=O)[nH]c3c2)c1` it was inactive: -23.1%. For `Cc1c(Cl)cccc1NC(=O)CSc1ncc(S(=O)(=O)c2ccc(C(C)C)cc2)c(=O)[nH]1` the value was inactive: -3.99%; for `COc1cc(Cl)c(C)cc1NC(=O)c1ccc(CN2C(=O)CCn3nc(C)cc32)cc1`, inactive: 15.3%. In the case of `COc1ccc(CCNS(=O)(=O)c2ccc(F)c(C(=O)Nc3ccc(Cl)cc3)c2)cc1OC` it was inactive: 8.64%.

Take `Cc1ccc(-c2nnc(Nc3ccc(Cl)c(Cl)c3)c3ccccc23)cc1S(=O)(=O)N(C)C`: the “activation” value was inactive: -20.8%. Regarding `Cc1ccc(C(=O)N2CCN(c3ccc(F)cc3)CC2)cc1NC(=O)c1nsc2ccccc12`, the “activation” value is inactive: -5.25%. For `CCC(=O)N1CCc2cc(CNC(=O)Nc3cc(C)ccc3C)ccc21` the value was inactive: 3.32%. In the case of `Oc1c(C(c2ccccc2Cl)N2CCOCC2)sc2nc(-c3ccco3)nn12` (stereo unspecified) it was inactive: -10.8%; in that of `Cc1cccc(CNC(=O)CN2C(=O)C3CCCCN3c3ccc(C(=O)N4CCCC4)cc32)c1` (stereo unspecified), inactive: -5.76%; in that of `CC(=O)c1cccc(NC(=O)Cn2c(=O)oc3cc(S(=O)(=O)NC4CCCC4)ccc32)c1`, inactive: -41.2%.

On to `CC(=O)c1ccc(Nc2nc3ccccc3nc2-n2nc(C)cc2C)cc1`, for which the “activation” value was inactive: -9.5%. For `CC(=O)N1CCN(c2nc3c(C)ccc(Cl)c3s2)CC1` the value was inactive: -11.9%. For `O=C(CSCc1ccccc1Cl)NCc1ccc(Cl)c(Cl)c1`, the “activation” value was inactive: -12.3%. In the case of `Cc1nc(-n2nc(C)c(Cc3ccc(Cl)cc3)c2C)sc1C(=O)N1CCCCC1C` (stereo unspecified) it was inactive: -34.3%. Regarding `COc1cccc(NC(=O)CSc2nccn2Cc2ccc3c(c2)OCO3)c1`, the “activation” value was inactive: -9.28%. In the case of `Cc1ccc(C)c(Cn2c3ccccc3c3cnn(CC(=O)NCC(C)c4ccccc4)c(=O)c32)c1` (stereo unspecified) it was inactive: -12.3%; in that of `Cc1ccc(NC(=O)CN2C(=O)CC(c3ccc(F)cc3)=Nc3ccccc32)cc1F`, inactive: -26.1%; in that of `COc1ccc(CN(C(=O)Nc2cccc(OC)c2)C2CCN(C(C)=O)CC2)cc1`, inactive: -4.55%.

`COc1ccc(OC)c(NC(=O)C(C)n2nc(C)c3c(C)n(-c4ccccc4)nc3c2=O)c1` (stereo unspecified): the “activation” value was inactive: -2.03%. In the case of `COc1cccc(CNC(=O)CN2C(=O)N(c3c(C)cccc3C)S(=O)(=O)c3ccccc32)c1OC` it was inactive: -6.19%; in that of `COc1ccc(C2c3c(oc4ccc(Cl)cc4c3=O)C(=O)N2CCCN(C)C)cc1OC` (stereo unspecified), inactive: -11.1%. For `CCOc1ccccc1Nc1nc(-c2ccc(C)cc2)c(CC(=O)O)s1` the value was inactive: -19.9%; for `O=c1[nH]c2ccc(NCc3ccc(-c4ccc(Cl)cc4)o3)cc2[nH]1`, inactive: -5.77%. On to `COc1ccc(/C=C\c2onc(C)c2S(=O)(=O)N2CCC(C(=O)Nc3cccc(C)c3C)CC2)cc1`, for which the “activation” value was inactive: -10.4%. Regarding `CCOc1ccc(NC(=O)Cn2nnc(C(=O)NCc3cccs3)c2N)cc1`, the “activation” value is inactive: -7.89%. In the case of `COc1ccc2c(c1)CCc1c(C(=O)Nc3c(C)nn(Cc4ccc(Cl)cc4)c3C)noc1-2`, the “activation” value is inactive: -23.8%. In the case of `CC[N+](C)(CC)CCOC(=O)C(O)(c1ccccc1)C1CCCCC1` (stereo unspecified) it was inactive: -15.1%; in that of `CNC(=O)c1ccc(CSc2nc3cccnc3n2Cc2cccc(F)c2)cc1`, inactive: -15.4%; in that of `CCc1ccc(-c2nc(SCC(=O)NCC3CCCO3)c(-c3ccc(F)cc3)[nH]2)cc1` (stereo unspecified), inactive: -21.1%.

As for `CC1=C(c2ccc(C)c(C)c2)S(=O)(=O)N=C1N1CCC(C(=O)Nc2ccc(Cl)cc2)CC1`, the “activation” value is inactive: 17.9%. With `CCc1nn(CC(=O)N2CCN(c3cc(C)ccc3C)CC2)c(=O)c2cc3occc3n12`, the “activation” value was inactive: -11.1%.

Take `COc1ccc(CCNc2nc(SCc3ccc(F)cc3)nc3ccccc23)cc1OC`: the “activation” value was inactive: -7.35%.

As to `Fc1ccccc1N1CCN(c2ncc3c(n2)CCN(Cc2ccc(Br)s2)C3)CC1`, the “activation” value was inactive: -17.4%. In the case of `COc1ccccc1CCNC(=O)C(=O)NCC(c1cccs1)S(=O)(=O)c1ccc(F)cc1` (stereo unspecified) it was inactive: -5.87%.

Consider `CC(Oc1ccccc1)C(=O)OCc1cc(=O)n2nc(C(C)C)sc2n1` (stereo unspecified), for which the “activation” value is inactive: -12.7%. In the case of `Cc1ccc2nc(-c3cccc(Cl)c3)c(Nc3ccc4c(c3)OCO4)n2c1` it was inactive: -15.1%; in that of `Cc1ccc(C)c(NC(=O)N2CCc3cc(S(=O)(=O)N4CCC(C)CC4)ccc32)c1`, inactive: -14.3%; in that of `COc1ccccc1NC(=O)Cn1cc(C(=O)c2ccncc2)c(=O)c2cc(C)ccc21`, inactive: -6.68%. In the case of `Cc1cc(=O)[nH]c2nnc(SCC(=O)Nc3ccc(F)cc3F)n12` it was inactive: -13.3%. With `COc1ccc(Cl)cc1NC(=O)C1CCN(S(=O)(=O)c2ccc3c(c2)CCCN3C(=O)C2CCC2)CC1`, the “activation” value was inactive: -18.6%. Turning to `CCc1ccc(S(=O)(=O)c2nnn3c2nc(NCc2cccc(OC)c2)c2cc(Cl)ccc23)cc1`, the “activation” value is inactive: -19.8%. For `O=C(Nc1cccc(-c2nc3ccccc3[nH]2)c1)c1ccccc1F` the value was inactive: -7.22%. For the compound `Cc1ccsc1CN(C(=O)c1ccc(Br)cc1)C1CCS(=O)(=O)C1` (stereo unspecified), the “activation” value was inactive: -5.91%. In the case of `COc1ccccc1CNC(=O)c1ccc2c(c1)nnn2C1CCCC1` it was inactive: -8.9%; in that of `Cc1ccc(NC(=O)N2CCN3CCCCC3C2)cc1F` (stereo unspecified), inactive: -10.9%; in that of `CCCC(CCC)C(=O)Nc1nnc2n1CCS2`, inactive: -0.569%. In the case of `CN(C)c1ccc(-c2noc(C3CC(=O)N(c4ccc5c(c4)OCCO5)C3)n2)cc1` (stereo unspecified) it was inactive: -12%. For `O=C(Nc1ccc(Cl)cc1)c1cc2c(Cl)nc3ccccc3c2s1` the value was inactive: 13.9%; for `Cc1cccc(N(C)C(=O)c2cc(S(=O)(=O)N3CCCCC3)c[nH]2)c1`, inactive: -4.97%. `COc1ccc(NC(=O)c2cc(S(=O)(=O)N3CCCCC3)cn2C)cc1Cl`: the “activation” value was inactive: -1.19%. For `O=C(Nc1ccc(S(=O)(=O)N2CCCCC2c2cccnc2)cc1)c1ccc(F)cc1` (stereo unspecified) the value was inactive: -25.3%; for `COc1ccc(-c2c3c(nc4sc(C(=O)Nc5ccccc5F)c(N)c24)CC(C)(C)CC3=O)cc1`, inactive: -10.5%.

Consider `CCc1ccc(CNC(=O)c2nn(-c3ccc(OC)c(Cl)c3)c(=O)c3c2c2ccccc2n3C)cc1`, for which the “activation” value was inactive: -15%.

These data come from PubChem BioAssay AID1159614 (National Center for Advancing Translational Sciences (NCATS), 2016).
